# Several values for one entry are separate records, joined by “and”; a condition that tells them apart may be missing. Equal values may be shown once. Inconclusive results, whose numbers are uncertain, are shown with a selection of clear calls. Where the call is inconclusive, the potency comes from a doubtful curve fit. Activity calls are given as the source filed them.
# Target: Androgen receptor (Homo sapiens) (UniProt P10275)
# Assay: qHTS assay to identify small molecule antagonists of the androgen receptor (AR) signaling pathway (AID 743035; active means well fitted inhibition curve with a large enough effect in the signal ratio in the repeat runs, not every such curve was filed as active; inconclusive means weak or mixed curves, or effect the other way; inactive means no such curve, though single readings can be large or run the other way; the % refers to the signal ratio)
# Settings: HEK293 AR-UAS-bla, R1881-stimulated, beta-lactamase FRET, 16 h; activity change, negative = inhibition: at 58.5 µM (top of the series; the call rests on the fitted dose curve and not on this point) unless noted
# How it was run: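 Beta-lactamase FRET read (2 h RT incubation with LiveBLAzer B/G) following 16 h of compound plus R1881 treatment of AR-UAS-bla HEK293 cells, which had been pre-incubated 4 h at 37C.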
# On the % scale 0 is the no-effect control and ±100 the full control effect; potency means the concentration at half of the fitted maximal effect; tags describe the fitted curve by direction and shape or compound fluorescence and quenching.
# UniProt P10275, sequence (P10275 whole entry, looked up): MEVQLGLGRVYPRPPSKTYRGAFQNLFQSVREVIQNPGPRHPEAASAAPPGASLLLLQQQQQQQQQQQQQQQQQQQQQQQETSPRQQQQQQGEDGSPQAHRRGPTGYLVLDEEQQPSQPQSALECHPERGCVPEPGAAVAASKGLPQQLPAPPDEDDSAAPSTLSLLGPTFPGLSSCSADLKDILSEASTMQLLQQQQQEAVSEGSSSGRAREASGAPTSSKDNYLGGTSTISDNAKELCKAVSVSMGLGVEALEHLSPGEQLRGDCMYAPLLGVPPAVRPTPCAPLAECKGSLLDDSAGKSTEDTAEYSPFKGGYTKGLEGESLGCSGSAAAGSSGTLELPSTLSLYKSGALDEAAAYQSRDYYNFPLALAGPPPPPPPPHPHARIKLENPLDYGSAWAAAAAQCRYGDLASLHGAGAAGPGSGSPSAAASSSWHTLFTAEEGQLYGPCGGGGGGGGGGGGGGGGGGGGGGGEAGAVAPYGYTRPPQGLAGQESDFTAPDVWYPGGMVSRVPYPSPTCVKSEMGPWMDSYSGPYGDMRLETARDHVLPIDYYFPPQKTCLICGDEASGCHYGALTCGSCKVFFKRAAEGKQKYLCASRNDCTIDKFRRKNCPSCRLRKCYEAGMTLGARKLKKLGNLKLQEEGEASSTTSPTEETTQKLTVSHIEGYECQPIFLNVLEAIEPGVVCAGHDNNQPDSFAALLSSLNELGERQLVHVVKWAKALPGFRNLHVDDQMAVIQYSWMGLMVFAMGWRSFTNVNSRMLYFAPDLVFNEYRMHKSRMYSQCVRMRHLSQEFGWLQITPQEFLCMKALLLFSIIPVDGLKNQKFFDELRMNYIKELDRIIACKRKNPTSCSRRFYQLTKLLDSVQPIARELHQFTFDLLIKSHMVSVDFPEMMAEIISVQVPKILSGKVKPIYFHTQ
SMILES,"activity change, negative = inhibition",Potency
CCN(CC)CCOC(=O)C1(C2CCCCC2)CCCCC1,inconclusive: -27.9%,
COc1cc(/C=C/C(=O)CC(=O)/C=C/c2ccc(O)c(OC)c2)ccc1O,,"inconclusive: 21.3 µM [rising, partial curve] and inconclusive: 19 µM [rising, partial curve] and inconclusive: 22 µM [rising, partial curve]"
CC(C)OC(=O)C(C)(C)Oc1ccc(C(=O)c2ccc(Cl)cc2)cc1,,"inconclusive: 54.9 µM [rising, partial curve, poor fit]"
CCCCCCOC(=O)c1ccc(O)cc1,inconclusive: -17.6%,inconclusive: 54.9 µM
CCCCCCCCCCOCC(O)CN (stereo not given),,"inconclusive: 26.8 µM [falling, single point]"
CC[C@H](c1ccc(O)cc1)[C@@H](CC)c1ccc(O)cc1,,active: 8.11 µM and active: 21.9 µM
CC(=O)Nc1ccc(C(=O)CCl)cc1,,inconclusive: 13.9 µM and inconclusive: 49 µM
O=C1c2c(O)ccc(O)c2C(=O)c2c(NCCNCCO)ccc(NCCNCCO)c21,,active: 0.512 µM

# Target: Androgen receptor (Homo sapiens) (UniProt P10275)
# Assay: qHTS assay to identify small molecule agonists of the androgen receptor (AR) signaling pathway (AID 743036; active means well fitted activation curve with a large enough effect in the signal ratio in the repeat runs, with a control signal flat, not every such curve was filed as active; inconclusive means weak or mixed curves, or effect the other way; inactive means no such curve, though single readings can be large or run the other way; the % refers to the signal ratio)
# Settings: HEK293 AR-UAS-bla GripTite, beta-lactamase FRET ratio, 16 h; activation: at 62.4 µM (top of the series) unless noted
# How it was run: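 Activation was read as beta-lactamase FRET signal from LiveBLAzer B/G substrate, added for 2 h at room temperature. Before that, GeneBLAzer AR-UAS-bla GripTite (HEK293) cells had 16 h compound exposure at 37C.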
row,SMILES,Potency
1,COc1cc(/C=C/C(=O)CC(=O)/C=C/c2ccc(O)c(OC)c2)ccc1O,"inconclusive: 23.9 µM [fluorescent, partial curve] and inconclusive: 10.7 µM [fluorescent, full curve, poor fit] and inconclusive: 43.9 µM [fluorescent, partial curve]"
2,CCCCCCOC(=O)c1ccc(O)cc1,"inconclusive: 49 µM [cytotoxic, single point] and inactive"
3,CCCCOCCOCCOCc1cc2c(cc1CCC)OCO2,"inconclusive: 13.8 µM [rising, partial curve, poor fit]"
4,CC[C@H](c1ccc(O)cc1)[C@@H](CC)c1ccc(O)cc1,inactive
5,CC(=O)Nc1ccc(C(=O)CCl)cc1,"inconclusive: 19.5 µM [activator, partial curve]"
6,O=C1c2c(O)ccc(O)c2C(=O)c2c(NCCNCCO)ccc(NCCNCCO)c21,"inconclusive: 2.04 µM [falling, partial curve, poor fit]"
